We go through 153 variants from a collection of fitness landscapes (doi:10.1126/science.1257360).

The list shows a part of the results. Some results are limits rather than exact numbers.

B1: PhoQ; a variant is named by its letters at X, in order, P23837 (parent)
chain: MKKLLRLFFPLSLRVRFLLATAAVVLVLSLAYGMVALIGYSVSFDKTTFRLLRGESNLFYTLAKWENNKLHVELPENIDKQSPTMTLIYDENGQLLWAQRDVPWLMKMIQPDWLKSNGFHEIEADVNDTSLLLSGDHSIQQQLQEVREDDDDAEMTHSVAVNVYPATSRMPKLTIVVVDTIPVELKSSYMVWSWFIYVLSANLLLVIPLLWVAAWWSLRPIEALAKEVRELEEHNRELLNPATTRELTSLVRNLNRLLKSERERYDKYRTTLTDLTHSLKTPLXXLQXXLRSLRSEKMSVSDAEPVMLEQISRISQQIGYYLHRASMRGGTLLSRELHPVAPLLDNLTSALNKVYQRKGVNISLDISPEISFVGEQNDFVEVMGNVLDNACKYCLEFVEISARQTDEHLYIVVEDDGPGIPLSKREVIFDRGQRVDTLRPGQGVGLAVAREITEQYEGKIVAGESMLGGARMEVIFGRQHSAPKDE

The variants in the assay derive from B1. Nature of the assay: enrichment ratio after two sorts for PhoP signalling (ratio (wild type AVST 3.29)); higher = more functional. Conditions: with PhoP (E. coli).
Consider TKGL, for which the enrichment ratio was found to be 0.899.

Regarding VSSC, the enrichment ratio was at most 0.25.

Take GFSF: the enrichment ratio was at most 0.25.

ACLT: the enrichment ratio amounted to 11.7.

On to VDCM, for which the enrichment ratio was at most 0.25.

For the variant RENV, the enrichment ratio is at most 0.25.

Consider RTCI, for which the enrichment ratio was at most 0.25.

As to FFAT, the enrichment ratio was at most 0.25.

On to PHTD, for which the enrichment ratio was at most 0.25.

As to SCVF, the enrichment ratio was 1.3.

Turning to ANCD, the enrichment ratio worked out at 0.285.

For KDWH, the enrichment ratio was at most 0.25.

Turning to SQNY, the enrichment ratio was 3.03.

For the variant PWFV, the enrichment ratio is at most 0.25.

On to PSVC, for which the enrichment ratio was at most 0.25.

Regarding WMWV, the enrichment ratio is at most 0.25.

Consider INWH, for which the enrichment ratio was at most 0.25.

GMID: the enrichment ratio was at most 0.25.

Regarding RFGP, the enrichment ratio is at most 0.25.

For HRDF, the enrichment ratio was at most 0.25.

As for RISW, the enrichment ratio is at most 0.25.

For the variant EDCA, the enrichment ratio is at most 0.25.

Regarding STLI, the enrichment ratio was found to be 12.4.

AFHM: the enrichment ratio was at most 0.25.

Consider MKTA, for which the enrichment ratio is at most 0.25.

As for LFMR, the enrichment ratio is at most 0.25.

Turning to FNKI, the enrichment ratio was at most 0.25.

For the variant SIKT, the enrichment ratio is at most 0.25.

Turning to YLKI, the enrichment ratio was at most 0.25.

On to IRNN, for which the enrichment ratio was at most 0.25.

For the variant SVKK, the enrichment ratio is at most 0.25.

In the case of FNYG, the enrichment ratio is at most 0.25.

Turning to EAGT, the enrichment ratio was at most 0.25.

As to MMPC, the enrichment ratio is at most 0.25.

Regarding VNSD, the enrichment ratio was at most 0.25.

In the case of TLSG, the enrichment ratio was determined as 9.01.

Consider TICN, for which the enrichment ratio was found to be 6.65.

As for PCLH, the enrichment ratio was at most 0.25.

For GDVW, the enrichment ratio was at most 0.25.

Regarding TLEQ, the enrichment ratio is at most 0.25.

In the case of VKNY, the enrichment ratio was found to be 7.12.

With WVWP, the enrichment ratio is at most 0.25.

As to NDFR, the enrichment ratio worked out at 2.54.

In the case of VTRA, the enrichment ratio is at most 0.25.

HAII: the enrichment ratio is at most 0.25.

On to DRVF, for which the enrichment ratio was at most 0.25.

Regarding SVNT, the enrichment ratio was at most 0.25.

On to FKDI, for which the enrichment ratio was at most 0.25.

For KEAT, the enrichment ratio is at most 0.25.

With VMFP, the enrichment ratio was at most 0.25.

Turning to WCNK, the enrichment ratio was at most 0.25.

For the variant RLMG, the enrichment ratio was at most 0.25.

With QTNH, the enrichment ratio came to 9.19.

With NWSS, the enrichment ratio was at most 0.25.

Consider MFHR, for which the enrichment ratio was at most 0.25.

In the case of TCYK, the enrichment ratio worked out at 3.36.

Take VVAL: the enrichment ratio is at most 0.25.

As for RMYW, the enrichment ratio was at most 0.25.

As for CLAF, the enrichment ratio was at most 0.25.

For the variant GINP, the enrichment ratio was at most 0.25.

For the variant HYDW, the enrichment ratio was at most 0.25.

Take TTCN: the enrichment ratio was 11.9.

On to RCCN, for which the enrichment ratio was at most 0.25.

As for LNMI, the enrichment ratio is 2.54.

For RANF, the enrichment ratio was at most 0.25.

For NMKN, the enrichment ratio is at most 0.25.

Turning to LHTV, the enrichment ratio is at most 0.25.

Regarding WMTE, the enrichment ratio is at most 0.25.

For MLKA, the enrichment ratio is at most 0.25.

Consider DKNC, for which the enrichment ratio was at most 0.25.

Turning to DCIN, the enrichment ratio is at most 0.25.

In the case of FKQS, the enrichment ratio is at most 0.25.

With MTMK, the enrichment ratio was at most 0.25.

For the variant AMQL, the enrichment ratio was found to be 10.2.

In the case of ELHM, the enrichment ratio is at most 0.25.

Consider MPMW, for which the enrichment ratio was at most 0.25.

Turning to WVDP, the enrichment ratio was at most 0.25.

For LQAA, the enrichment ratio was at most 0.25.

As to VWQH, the enrichment ratio was at most 0.25.

Regarding VGFR, the enrichment ratio is at most 0.25.

As to ACLD, the enrichment ratio is at most 0.25.

Regarding TNIH, the enrichment ratio is at most 0.25.

Consider RVHY, for which the enrichment ratio was at most 0.25.

In the case of FPMR, the enrichment ratio was at most 0.25.

For the variant DEGD, the enrichment ratio was at most 0.25.

With KAFT, the enrichment ratio is at most 0.25.

In the case of FYKE, the enrichment ratio was at most 0.25.

Consider YKLH, for which the enrichment ratio is at most 0.25.

As to ACVW, the enrichment ratio was at most 0.25.

Turning to IHQC, the enrichment ratio is at most 0.25.

With TRDK, the enrichment ratio was at most 0.25.

In the case of ESRF, the enrichment ratio is at most 0.25.

Consider LMRP, for which the enrichment ratio is at most 0.25.

Consider VMKE, for which the enrichment ratio was at most 0.25.

Take EFQA: the enrichment ratio was at most 0.25.

Turning to KMRH, the enrichment ratio was at most 0.25.

Regarding HHIW, the enrichment ratio is at most 0.25.

On to TIQW, for which the enrichment ratio was at most 0.25.

In the case of KRQC, the enrichment ratio is at most 0.25.

Consider HQWF, for which the enrichment ratio is at most 0.25.

For MSKK, the enrichment ratio is at most 0.25.

YKGW: the enrichment ratio is at most 0.25.

Turning to TPYP, the enrichment ratio was at most 0.25.

Regarding SYKM, the enrichment ratio was at most 0.25.

As to ENGD, the enrichment ratio was at most 0.25.

As for SQGL, the enrichment ratio is 2.25.

As to NMII, the enrichment ratio was at most 0.25.

Consider RNSE, for which the enrichment ratio is at most 0.25.

Consider PDDF, for which the enrichment ratio is at most 0.25.

Consider VHLG, for which the enrichment ratio was at most 0.25.

PAWQ: the enrichment ratio was at most 0.25.

As to NGKL, the enrichment ratio was at most 0.25.

For IRAI, the enrichment ratio was at most 0.25.

For the variant ACRR, the enrichment ratio was at most 0.25.

On to DSNI, for which the enrichment ratio is at most 0.25.

As for FEAV, the enrichment ratio came to 0.96.

Consider TDRR, for which the enrichment ratio is at most 0.25.

Take QDMI: the enrichment ratio is at most 0.25.

For YMWV, the enrichment ratio was at most 0.25.

For KFKD, the enrichment ratio was at most 0.25.

For the variant HGNP, the enrichment ratio is at most 0.25.

For DERK, the enrichment ratio is at most 0.25.

For MTKF, the enrichment ratio is at most 0.25.

As to QLQC, the enrichment ratio was at most 0.25.

With QKFP, the enrichment ratio is at most 0.25.

Consider TIFV, for which the enrichment ratio is at most 0.25.

Turning to VVWS, the enrichment ratio is at most 0.25.

On to RTYR, for which the enrichment ratio was at most 0.25.

For RQQH, the enrichment ratio was at most 0.25.

On to DCCA, for which the enrichment ratio is at most 0.25.

Turning to ALQY, the enrichment ratio is at most 0.25.

For NRRK, the enrichment ratio was at most 0.25.

Regarding LYRT, the enrichment ratio was at most 0.25.

STWE: the enrichment ratio is at most 0.25.

In the case of VVKA, the enrichment ratio is at most 0.25.

In the case of AEQW, the enrichment ratio is at most 0.25.

GNFP: the enrichment ratio was at most 0.25.

For the variant DMCF, the enrichment ratio is at most 0.25.

Consider EVWD, for which the enrichment ratio was at most 0.25.

As to ATVY, the enrichment ratio worked out at 5.36.

In the case of MKKD, the enrichment ratio was at most 0.25.

Turning to PQFH, the enrichment ratio is at most 0.25.

YLLA: the enrichment ratio was at most 0.25.

For GRTF, the enrichment ratio stood at 0.656.

Take WAGP: the enrichment ratio was at most 0.25.

Take DSKY: the enrichment ratio is at most 0.25.

Take AAKG: the enrichment ratio is at most 0.25.

As for VESC, the enrichment ratio amounted to 5.05.

WPGV: the enrichment ratio is at most 0.25.

GNTC: the enrichment ratio was found to be 1.23.

As to FSEG, the enrichment ratio was at most 0.25.

Consider INDC, for which the enrichment ratio was at most 0.25.

With SCER, the enrichment ratio is at most 0.25.
